# In article PMC9911399, “Two distinct binding modes provide the RNA-binding protein RbFox with extraordinary sequence specificity”:
# Substitutions are numbered along the chain they refer to; changes in the protein carry UniProt numbers. The list shows a part of the results.
# T1: RBFOX1 RRM (Homo sapiens, UniProt Q9NWB1 109-208)
# T1 sequence: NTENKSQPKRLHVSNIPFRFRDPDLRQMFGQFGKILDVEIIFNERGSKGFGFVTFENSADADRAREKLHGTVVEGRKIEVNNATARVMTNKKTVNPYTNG
# B1: UCGUCGA (DNA:RNA)
# RNA: GGGAGACCGGAAUUCAGAUUGUCCUCGUCGAUUAAAUCCCGUCGUAGCCACCA
# DNA 1: CAATCTGAATTCCGGTCTCCC
# DNA 2: TGGTGGCTACGACGGGATT
# B2: ACCAGUC (DNA:RNA)
# RNA: B1 RNA with U25A, G27C, U28A, C29G, G30U, A31C
# DNA 1: CAATCTGAATTCCGGTCTCCC
# DNA 2: TGGTGGCTACGACGGGATT
# B3: AUUGCUA (DNA:RNA)
# RNA: B1 RNA with U25A, C26U, G27U, U28G, G30U
# DNA 1: CAATCTGAATTCCGGTCTCCC
# DNA 2: TGGTGGCTACGACGGGATT
# B4: UUUUUGC (DNA:RNA)
# RNA: B1 RNA with C26U, G27U, C29U, A31C
# DNA 1: CAATCTGAATTCCGGTCTCCC
# DNA 2: TGGTGGCTACGACGGGATT
# B5: AGCCCAA (DNA:RNA)
# RNA: B1 RNA with U25A, C26G, G27C, U28C, G30A
# DNA 1: CAATCTGAATTCCGGTCTCCC
# DNA 2: TGGTGGCTACGACGGGATT
# B6: UGGAUAU (DNA:RNA)
# RNA: B1 RNA with C26G, U28A, C29U, G30A, A31U
# DNA 1: CAATCTGAATTCCGGTCTCCC
# DNA 2: TGGTGGCTACGACGGGATT
# B7: GCUUCUU (DNA:RNA)
# RNA: B1 RNA with U25G, G27U, G30U, A31U
# DNA 1: CAATCTGAATTCCGGTCTCCC
# DNA 2: TGGTGGCTACGACGGGATT
# B8: GGUUCUA (DNA:RNA)
# RNA: B1 RNA with U25G, C26G, G27U, G30U
# DNA 1: CAATCTGAATTCCGGTCTCCC
# DNA 2: TGGTGGCTACGACGGGATT
# B9: UUGCUCG (DNA:RNA)
# RNA: B1 RNA with C26U, U28C, C29U, G30C, A31G
# DNA 1: CAATCTGAATTCCGGTCTCCC
# DNA 2: TGGTGGCTACGACGGGATT
# B10: ACAAAGC (DNA:RNA)
# RNA: B1 RNA with U25A, G27A, U28A, C29A, A31C
# DNA 1: CAATCTGAATTCCGGTCTCCC
# DNA 2: TGGTGGCTACGACGGGATT
# B11: UACGAUA (DNA:RNA)
# RNA: B1 RNA with C26A, G27C, U28G, C29A, G30U
# DNA 1: CAATCTGAATTCCGGTCTCCC
# DNA 2: TGGTGGCTACGACGGGATT
# B12: CUGUGAU (DNA:RNA)
# RNA: B1 RNA with U25C, C26U, C29G, G30A, A31U
# DNA 1: CAATCTGAATTCCGGTCTCCC
# DNA 2: TGGTGGCTACGACGGGATT
# B13: CGAAUAC (DNA:RNA)
# RNA: GGGAGACCGGAAUUCAGAUUGUCCCGAAUACUUAAAUCCCGUCGUAGCCACCA
# DNA 1: CAATCTGAATTCCGGTCTCCC
# DNA 2: TGGTGGCTACGACGGGATT
# B14: ACGAGGA (DNA:RNA)
# RNA: B1 RNA with U25A, U28A, C29G
# DNA 1: CAATCTGAATTCCGGTCTCCC
# DNA 2: TGGTGGCTACGACGGGATT
# B15: AAUCGUU (DNA:RNA)
# RNA: GGGAGACCGGAAUUCAGAUUGUCCAAUCGUUUUAAAUCCCGUCGUAGCCACCA
# DNA 1: CAATCTGAATTCCGGTCTCCC
# DNA 2: TGGTGGCTACGACGGGATT
# B16: CAGUGGC (DNA:RNA)
# RNA: B1 RNA with U25C, C26A, C29G, A31C
# DNA 1: CAATCTGAATTCCGGTCTCCC
# DNA 2: TGGTGGCTACGACGGGATT
# B17: UCUCGUC (DNA:RNA)
# RNA: B15 RNA with A25U, A26C, U31C
# DNA 1: CAATCTGAATTCCGGTCTCCC
# DNA 2: TGGTGGCTACGACGGGATT
# B18: AAUGUCG (DNA:RNA)
# RNA: B15 RNA with C28G, G29U, U30C, U31G
# DNA 1: CAATCTGAATTCCGGTCTCCC
# DNA 2: TGGTGGCTACGACGGGATT
# B19: GUCAAUG (DNA:RNA)
# RNA: B15 RNA with A25G, A26U, U27C, C28A, G29A, U31G
# DNA 1: CAATCTGAATTCCGGTCTCCC
# DNA 2: TGGTGGCTACGACGGGATT
# B20: GCCUGAC (DNA:RNA)
# RNA: B13 RNA with C25G, G26C, A27C, A28U, U29G
# DNA 1: CAATCTGAATTCCGGTCTCCC
# DNA 2: TGGTGGCTACGACGGGATT
# Target: T1, RBFOX1 RRM
# Assay: EMSA; HiTS-Eq, 1 nM pool, 10 min; buffer printed only for the single-RNA assays: 10 mM Tris pH 7.5, 150 mM NaCl, 3.4 mM EDTA, 0.001% NP-40, 30 C
# Settings: tags: His6 N-terminal (pET28a); label: 5' 32P
# Summary of the method: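 Purified RbFox RRM, wild type or mutant, was incubated for 10 min in 50 µL with 1 nM of a 5′-radiolabelled RNA pool carrying 7 randomized nucleotides, whose flanks were annealed to DNA oligonucleotides, over a series of increasing protein concentrations. Unbound RNA was resolved on 8% native PAGE, cut out, reverse-transcribed, barcoded by PCR and sequenced on an Illumina HiSeq 2500. Relative association constants were derived from changes in read counts for each RNA species versus the control reaction and normalised to the cognate motif.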
row,Binder,binding signal
1,B1,0.014 KA relative to UGCAUGU
2,B2,0.00462 KA relative to UGCAUGU
3,B3,0.01 KA relative to UGCAUGU
4,B4,0.0305 KA relative to UGCAUGU
5,B5,0.00242 KA relative to UGCAUGU
6,B6,0.0194 KA relative to UGCAUGU
7,B7,0.015 KA relative to UGCAUGU
8,B8,0.0124 KA relative to UGCAUGU
9,B9,0.0477 KA relative to UGCAUGU
10,B10,0.000899 KA relative to UGCAUGU
11,B11,0.0048 KA relative to UGCAUGU
12,B12,0.0141 KA relative to UGCAUGU
13,B13,0.00404 KA relative to UGCAUGU
14,B14,0.00366 KA relative to UGCAUGU
15,B15,0.00738 KA relative to UGCAUGU
16,B16,0.00648 KA relative to UGCAUGU
17,B17,0.0109 KA relative to UGCAUGU
18,B18,0.0133 KA relative to UGCAUGU
19,B19,0.0103 KA relative to UGCAUGU
20,B20,0.0331 KA relative to UGCAUGU
